From publication PMC4931317, “UtpA and UtpB chaperone nascent pre-ribosomal RNA and U3 snoRNA to initiate eukaryotic ribosome assembly” (Nature Communications, 2016)
No constants are given. Whether binding was seen depends on the method and setting. Some entries that bind do so weakly or less than the wild type.

Chains of the proteins cited; added tags and fusions are not shown. Lines headed by an entry give the natural chain unless they say otherwise; changes in a name come on top.
UniProt Q12220: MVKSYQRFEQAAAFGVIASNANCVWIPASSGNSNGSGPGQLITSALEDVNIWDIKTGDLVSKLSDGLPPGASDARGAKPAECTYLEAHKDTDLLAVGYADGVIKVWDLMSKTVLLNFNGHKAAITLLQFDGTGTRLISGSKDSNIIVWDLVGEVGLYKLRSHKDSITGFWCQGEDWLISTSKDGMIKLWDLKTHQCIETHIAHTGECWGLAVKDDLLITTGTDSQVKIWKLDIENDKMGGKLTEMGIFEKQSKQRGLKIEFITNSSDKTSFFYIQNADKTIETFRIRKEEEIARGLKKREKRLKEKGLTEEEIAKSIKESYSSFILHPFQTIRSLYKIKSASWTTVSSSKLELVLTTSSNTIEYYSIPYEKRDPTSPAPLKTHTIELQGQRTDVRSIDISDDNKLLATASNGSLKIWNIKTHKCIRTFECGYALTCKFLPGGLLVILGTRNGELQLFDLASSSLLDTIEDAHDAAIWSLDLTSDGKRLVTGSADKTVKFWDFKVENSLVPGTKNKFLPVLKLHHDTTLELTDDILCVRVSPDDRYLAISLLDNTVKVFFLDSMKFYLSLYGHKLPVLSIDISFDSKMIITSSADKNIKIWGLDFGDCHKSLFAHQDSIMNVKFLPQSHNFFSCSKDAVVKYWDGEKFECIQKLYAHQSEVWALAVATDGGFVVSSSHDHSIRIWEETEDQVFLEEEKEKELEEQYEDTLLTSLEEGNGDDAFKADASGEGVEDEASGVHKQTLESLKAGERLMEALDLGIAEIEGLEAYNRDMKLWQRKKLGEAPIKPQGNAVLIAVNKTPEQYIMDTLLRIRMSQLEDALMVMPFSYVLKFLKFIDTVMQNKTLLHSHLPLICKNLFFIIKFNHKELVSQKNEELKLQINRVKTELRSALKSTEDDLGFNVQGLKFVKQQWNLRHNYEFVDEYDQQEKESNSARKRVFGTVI

Experiments:
[1] = molecular target: T1, Utp6/Utp18 heterodimer (recombinant) (S. cerevisiae) (UniProt Q02354+P40362); experiment: SEC; 2 μM UtpBΔUtp6ΔUtp18 injected alone, with 4 μM Utp6/Utp18 or with 4 μM Utp6; Superose 6 Increase, 50 mM HEPES-NaOH pH 7.7, 300 mM NaCl, 1 mM EDTA; both purified
T1 sequence 1: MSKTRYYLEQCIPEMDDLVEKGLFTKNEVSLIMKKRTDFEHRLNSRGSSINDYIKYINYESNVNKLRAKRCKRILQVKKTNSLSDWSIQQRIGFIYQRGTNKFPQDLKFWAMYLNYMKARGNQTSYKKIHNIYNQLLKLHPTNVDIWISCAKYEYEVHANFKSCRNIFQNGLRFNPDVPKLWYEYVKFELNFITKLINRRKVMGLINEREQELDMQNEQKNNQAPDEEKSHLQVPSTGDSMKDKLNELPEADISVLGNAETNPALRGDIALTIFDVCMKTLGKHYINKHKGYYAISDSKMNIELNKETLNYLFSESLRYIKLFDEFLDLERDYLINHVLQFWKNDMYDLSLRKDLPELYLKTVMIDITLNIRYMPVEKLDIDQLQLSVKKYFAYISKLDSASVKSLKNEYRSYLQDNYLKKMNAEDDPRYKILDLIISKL
T1 sequence 2: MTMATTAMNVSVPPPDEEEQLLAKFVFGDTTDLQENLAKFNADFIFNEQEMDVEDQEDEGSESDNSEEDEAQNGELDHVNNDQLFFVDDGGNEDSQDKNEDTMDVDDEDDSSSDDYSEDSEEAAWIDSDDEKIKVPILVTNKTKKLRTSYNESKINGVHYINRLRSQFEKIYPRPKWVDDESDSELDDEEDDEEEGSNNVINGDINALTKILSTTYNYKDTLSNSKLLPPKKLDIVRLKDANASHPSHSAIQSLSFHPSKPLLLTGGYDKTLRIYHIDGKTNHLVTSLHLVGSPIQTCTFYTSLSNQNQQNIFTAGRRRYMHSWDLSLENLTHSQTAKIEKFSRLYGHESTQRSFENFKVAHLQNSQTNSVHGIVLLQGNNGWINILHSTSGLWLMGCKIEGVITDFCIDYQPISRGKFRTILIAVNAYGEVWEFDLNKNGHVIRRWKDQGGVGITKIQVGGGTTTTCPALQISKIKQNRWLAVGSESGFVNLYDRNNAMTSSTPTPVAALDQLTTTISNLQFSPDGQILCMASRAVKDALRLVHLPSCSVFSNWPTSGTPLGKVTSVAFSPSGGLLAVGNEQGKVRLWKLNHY

[2] = molecular target: T1, Utp6/Utp18 heterodimer (recombinant) (S. cerevisiae); experiment: pull-down; His-tagged Utp6, alone or co-expressed with Utp18, as bait on Nickel Sepharose; proteins 1 μM, on ice, 50 mM Hepes-NaOH pH 7.7, 300 mM NaCl, 70 mM imidazole; eluted with 3C protease; Coomassie-stained SDS-PAGE; both purified

UtpBΔUtp6ΔUtp18 (recombinant Utp12/Utp13/Utp21/Utp1 heterotetramer) (from UniProt Q12220 1-943; Q05946 1-817; Q06078 1-939; P25635 1-923) (complex)
binding [1]: binds
binding [2]: binds
